Source: article PMC6919601, “Identification of Plasmodium dipeptidyl aminopeptidase allosteric inhibitors by high throughput screening” (PLoS ONE, 2019)
Values joined by “and” are separate entries in the source; they are usually repeats but may differ in a detail not shown here. Equal values may be shown once. Out of some 110,000 compounds screened, about 230 (0.21%) showed an effect of 50% or more. Some of the results follow.

Target: DPAP1 (Plasmodium falciparum, UniProt Q8IIJ9)
Assay: primary screen, percent inhibition; read by cleavage of a fluorogenic dipeptide substrate; higher = more effect of the substance
Design: species or system P. falciparum D10 trophozoite lysates; single well
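Note: 30 min substrate incubation versus DMSO and 10 µM JCP410 controls.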

DPAP1, sequence (Q8IIJ9 whole entry, looked up): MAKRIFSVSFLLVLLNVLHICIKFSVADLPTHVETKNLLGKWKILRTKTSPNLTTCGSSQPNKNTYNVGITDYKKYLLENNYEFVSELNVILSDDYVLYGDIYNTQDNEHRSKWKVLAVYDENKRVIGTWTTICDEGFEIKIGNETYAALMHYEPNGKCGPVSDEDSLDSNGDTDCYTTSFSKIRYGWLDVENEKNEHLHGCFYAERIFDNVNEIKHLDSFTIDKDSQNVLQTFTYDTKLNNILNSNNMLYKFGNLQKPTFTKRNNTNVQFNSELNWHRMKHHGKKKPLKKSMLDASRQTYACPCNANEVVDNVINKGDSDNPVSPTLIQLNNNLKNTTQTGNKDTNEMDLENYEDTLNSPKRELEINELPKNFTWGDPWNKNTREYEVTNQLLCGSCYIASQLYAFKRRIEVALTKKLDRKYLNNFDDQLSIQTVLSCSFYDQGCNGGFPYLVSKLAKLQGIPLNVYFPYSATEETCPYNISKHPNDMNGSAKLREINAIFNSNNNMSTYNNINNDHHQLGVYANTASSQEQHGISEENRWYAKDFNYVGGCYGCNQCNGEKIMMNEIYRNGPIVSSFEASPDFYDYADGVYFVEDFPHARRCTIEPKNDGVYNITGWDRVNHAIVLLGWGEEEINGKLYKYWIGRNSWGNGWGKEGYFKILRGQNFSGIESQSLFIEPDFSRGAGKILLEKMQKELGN

Row | SMILES | % Inhibition @ 10 uM
1 | OCC1CCCN(c2ncccn2)C1 (stereo not drawn) | 4.98%
2 | O=C(O)CSc1nc2ccccc2n2cnnc12 | -1.14%
3 | Cc1ccc2c(c1)C1C=CCC1C(c1ccc([N+](=O)[O-])cc1)N2 (stereo not drawn) | 4.61%
4 | OCCN(CCO)Cc1ccccc1F | -2.34%
5 | CCC1CCCCN1C(=O)CCCCn1c(=S)[nH]c2c([nH]c3ccc(OC)cc32)c1=O (stereo not drawn) | -2.19%
6 | Cc1ccc(C(=O)O)cc1-c1ccc(C=C2C(=O)OC3(CCCCC3)OC2=O)o1 | 1.97%
7 | Cc1ccc(OCC(=O)NCc2ccco2)c(C(C)(C)C)c1 | -2.6%
8 | N#CCNC(=O)[C@H](CSCc1ccccc1)NC(=O)c1cccc(F)c1 | -6.98%
9 | Cc1nc2scc(C)n2c(=O)c1S(=O)(=O)N1CCC(C)CC1 | -1.55%
10 | COc1cc(Br)c(CCn2c(=O)[nH]c(=O)c3sc(N)nc32)cc1OC | 2.31%
11 | Cc1ccccc1CN1CCC(O)CC1 | -1.77%
12 | Cc1cc(O)c(C2=Nc3ccccc3SC(c3cccc(O)c3)C2)c(=O)o1 (stereo not drawn) | 6.08%
13 | CCN(CC)c1ccc(NC(=O)COc2cc(C)ccc2C)cc1 | 2.01%
14 | CC(=O)C1=C(C)Nc2ncnn2C1c1ccc(OCc2ccccc2)cc1 (stereo not drawn) | 2.38%
15 | Cc1ccc(C)c(CN2CCCN(C(=O)c3sc4nc5n(c(=O)c4c3C)CCCCC5)C2)c1 | 0.943%
16 | CC(=O)Nc1ccc(S(=O)(=O)Nc2cccc(Cl)c2Cl)cc1 | 4.57%
17 | CCOC(=O)c1ccc2c(c1)c(C)c(C)n2Cc1ccccc1 | 0.605%
18 | O=C(Nc1nccs1)/C(NC(=O)c1ccccc1)=C(/Cl)c1ccccc1 | -1.29%
19 | CC1CCC(C(C)C)C(OCC(O)CNC(C)C)C1 (stereo not drawn) | 1.63%
20 | COc1ccc2c(c1)c1c(c(=O)n(CCc3ccccc3)c(=O)n1CC(N)=O)n2C | -0.913%
21 | CCOC(=O)N1CCC(c2cc(O)n3nccc3n2)CC1 | -1.03%
22 | CCn1cc(C(=O)NCCCN2CCOCC2)c2cc(OC)c(OC)cc2c1=O | -6.6%
23 | CCOC(=O)c1c(C)oc2ncnc(NCc3cccnc3)c12 | -2.19%
24 | COc1cccc(NC2=C(Cl)C(=O)N(c3ccccc3)C2=O)c1 | 6.84%
25 | COc1ccc(CCNC(=O)CCn2nc(-c3ccc(Cl)cc3)ccc2=O)cc1OC | -0.267%
26 | O=C1OC(c2ccco2)=N/C1=C\c1ccco1 | 1.12%

Row | SMILES | % Inhibition @ 10 uM
27 | COc1cccc(CNC(=O)c2ccc3c(c2)sc2nc(-c4ccc(F)cc4)cn23)c1OC | -0.613%
28 | C=C(C)CSC1=C(C#N)C(c2ccc(Cl)cc2Cl)CC(=O)N1 (stereo not drawn) | 4.52%
29 | CCCCn1c(CCCO)nc2ccccc21 | -2.04%
30 | Cn1c(C(=O)O)c(CNCCCN2CCc3ccccc3C2)c2ccccc21 | 5.09%
31 | O=C(O)/C=C/C(=O)N1CCCc2ccccc21 | -0.239%
32 | CC(=O)N1N=C(c2ccc(Br)cc2)CC1c1ccc(F)cc1 (stereo not drawn) | -3.13%
33 | COc1ccc(-c2cc(C)no2)cc1S(=O)(=O)N(CCN1CCOCC1)Cc1ccco1 | 2.41%
34 | CC(=O)Nc1ccc(S(=O)(=O)Nc2nc(-c3ccc(C(C)(C)C)cc3)cs2)cc1 | 1.83%
35 | Cc1cc(C)c2c(/N=C/N(C)C)c(C(=O)N3CCN(c4ncccn4)CC3)sc2n1 | -3.37%
36 | COc1ccc(OC)c(C2CC(=O)C3=C(C2)NC(=O)CC3c2ccc(Cl)cc2Cl)c1 (stereo not drawn) | -1.7%
37 | Cc1nc2c(-c3ccc(F)cc3)c(C)nn2c(C)c1CCC(=O)N1CCCC1 | -0.465%
38 | CC(C)C[C@H](NC(=O)c1ccccc1Cl)C(=O)NCC#N | -3.04%
39 | O=C(O)C1CCCCC1C(=O)N1CC=C(c2ccccc2)CC1 (stereo not drawn) | -2.9%
40 | Oc1ccc(Nc2ccnc3cc(Cl)ccc23)cc1 | 13.1%
41 | CCOc1ccc(N(C(C)C(=O)Nc2c(C)cccc2C)S(C)(=O)=O)cc1 (stereo not drawn) | 7.55%
42 | CC(C)Cc1cc(C(=O)N2CCN(Cc3noc(CCC(=O)N4CCCCCC4)n3)CC2)no1 | 0.359%
43 | O=S(=O)(/C=C/c1ccccc1)NCc1ccccc1 | -1.32%
44 | Cc1cc(=O)n2nc(N(C)CC(=O)NCCCOC(C)C)sc2n1 | 6.06%
45 | COc1cc(/C=C2\SC(=N)N(c3ccc(Br)cc3)C2=O)ccc1OCC#N | 1.59%
46 | O=C(c1cccs1)N1CCCCCC1 | -4.94%
47 | Cc1ccc(C)c(C(=O)c2ccccc2C(=O)O)c1 | -0.128%
48 | NC1=NC(=O)NC(C(F)(F)F)(C(F)(F)F)N1 | -1.72%
49 | CCC(=O)Nc1sc2c(c1C(=O)Nc1ccccc1)CCCC2 | 5.24%
50 | COc1ccc(NC(=O)COc2ccc(/C=C3\SC(N)=NC3=O)cc2OC)cc1 | -1.51%
51 | O=C(c1ccncc1)N1CCN(C2CCCCC2)CC1 | -3.67%
52 | Cc1cccc(-c2noc(CCC(=O)N3CCOCC3)n2)c1 | -0.666%

Row | SMILES | % Inhibition @ 10 uM
53 | COc1ccc(-c2cc3c(=O)n(CC(=O)NCCN4CCOCC4)ncn3n2)cc1 | 9.77%
54 | c1ccc(CN2CCC(NC3CCCCCC3)CC2)cc1 | 4.61%
55 | O=C1OC(c2ccc(Cl)cc2)=N/C1=C\c1coc2ccccc2c1=O | 7.31%
56 | CC(=O)NCC/N=C(\C)c1sc2ccccc2c1O | -3.51%
57 | CC1CCN(C(=O)CCC(=O)N2Cc3ccccc3Oc3ncccc32)CC1 | 4.36%
58 | N#CC1=C(N)Oc2cc(N)ccc2C1c1ccc(F)c(F)c1 (stereo not drawn) | 3.01%
59 | COc1ccccc1N1CCN(Cc2ccc(C)cc2C)CC1 | 1.63%
60 | CCOC(=O)C1=C(CN2CCC3(CC2)OCCO3)NC(=O)NC1c1cccc(OC)c1OC (stereo not drawn) | 93%
61 | CCO/C(O)=C1\C(C)=NC2=C(C(=O)CC(c3ccc(Cl)cc3)C2)C1c1cc(OC)ccc1OC (stereo not drawn) | 19.4%
62 | O=C(Nc1ccc2c(c1)OCO2)c1ccc([N+](=O)[O-])cc1 | 1.35%
63 | c1ccc(CC(NC2CCN(Cc3ccccc3)CC2)c2ccccc2)cc1 (stereo not drawn) | 1.57%
64 | CC(=O)Nc1c(C(=O)c2cccs2)oc2ccccc12 | 1.15%
65 | Cc1coc2cc3oc(=O)c(CC(=O)NCc4ccc5c(c4)OCO5)c(C)c3cc12 | 0.895%
66 | Cc1onc(-c2ccccc2)c1C(=O)Nc1ccc(Cl)cc1Cl | -1.88%
67 | Cc1ccccc1OCC(=O)Nc1ccc(Br)c(Cl)c1 | -2.19%
68 | CC(C)NS(=O)(=O)c1ccc(OCC(=O)N2CCN(C)CC2)cc1 | -2.9%
69 | NC(=O)C1CCCCc2c1[nH]c1ccc(Cl)cc21 (stereo not drawn) | -1.2%
70 | COc1ccc(OC)c(CCNC(=O)Cn2cc3c(n2)CCCCC3)c1 | -11.1%
71 | O=C(Nc1ccc(S(=O)(=O)NC2CCCCC2)cc1)Nc1cccc(Cl)c1 | 1.83%
72 | OC1=C2C(=Nc3nc(SCc4ccccc4)nn3C2c2ccc(O)cc2)CCC1 (stereo not drawn) | -4.67%
73 | COC(=O)c1sccc1N(Cc1ccc(F)cc1)S(C)(=O)=O | 10.1%
74 | COc1ccc(CSc2nc3ccncc3n2Cc2ccccc2F)cc1 | 2.65%
75 | O=c1oc2ccc([N+](=O)[O-])cc2cc1-c1nc(-c2ccc(-c3ccccc3)cc2)cs1 | -0.268%
76 | OCCCCC/N=c1\cc(-c2ccccc2)oc2ccc(Cl)cc12 | -3.21%
77 | COc1ccc(C(=O)Cn2c(N3CCOCC3)nc3c2c(=O)n(C)c(=O)n3C)cc1 | -2.56%
78 | N=c1ccccn1CC(O)COc1ccccc1 (stereo not drawn) | 0.0289%

Row | SMILES | % Inhibition @ 10 uM
79 | COc1ccc(NC(=O)c2ccc(Cn3cc(Br)cn3)cc2)cc1OC | -2.99%
80 | CCc1ccc2occ(CC(=O)Nc3sc4c(c3C(=O)NC)CCCC4)c2c1 | -2.4%
81 | CC(Oc1ccc(C=C2C(=O)c3ccccc3C2=O)cc1)C(=O)O (stereo not drawn) | -5.28%
82 | O=C(Nc1cccc(C(F)(F)F)c1)c1ccc(Cn2cc(Br)cn2)o1 | 30.9%
83 | O=C(c1coc2ccc(O)cc12)C1CC1 | -6.83%
84 | Cc1ccc(NC(=O)CCCC(=O)Nc2ccc(C)cc2C)c(C)c1 | -0.725%
85 | COC(=O)C(NC(=O)c1ccc(Cl)cc1Cl)C(C)C (stereo not drawn) | -3.26%
86 | CCOC(=O)c1nc2nc(-c3ccccc3)cc(C(F)(F)F)n2n1 | 3.48%
87 | Cc1ccc(NC(=O)CNc2ccc(OC(C)C)cc2)cc1 | -2.21%
88 | COc1ccc(NC(=O)CN(c2ccc(Br)cc2)S(C)(=O)=O)cc1OC | -1.95%
89 | O=C(Nc1ccc(Cl)cc1Cl)Nc1ccccc1C(F)(F)F | 4.54%
90 | CC1(C)CC2=Nc3nn(-c4ccccc4)c(O)c3C(c3ccccc3Cl)C2=C(O)C1 (stereo not drawn) | -8.55%
91 | Cc1nnc(NC2CC2)c2c1nnn2Cc1ccccc1Cl | 3.08%
92 | O=c1oc2ccccc2c(O)c1[N+](=O)[O-] | -4.35%
93 | Cc1[nH]c2ccccc2c1/C=C/C(=O)c1ccncc1 | 6.96%
94 | COc1ccc(/C=C/C(=O)O)cc1S(=O)(=O)N(C)CCO | 21.7%
95 | CSc1ccc(C2C(C#N)=C(N)N(c3nc[nH]n3)C3=C2C(=O)CCC3)cc1 (stereo not drawn) | 0.343%
96 | COc1ccc(N2CCN(Cc3ccccc3C(F)(F)F)CC2)cc1 | 3.9%
97 | O=C(Nc1ccncc1)c1ccc(COc2ccccc2Cl)cc1 | -0.25% and 3.53%
98 | Oc1nc2ncccc2nc1-c1ccccc1 | 2.39%
99 | CCOc1ccc(C2C(C#N)=C(N)Oc3c2c(C)nn3-c2ccccc2)cc1 (stereo not drawn) | -4.75%
100 | CCS(=O)(=O)N1CCC(C(=O)NCCCN2CCCC(C)C2)CC1 (stereo not drawn) | 0.514%
101 | CCOc1ccc(NC(=O)c2ccccc2C(=O)O)cc1 | -5.46%
102 | COc1ccccc1C1C2=C(CC(C)(C)CC2=O)N(C)C2=C1C(=O)CC(C)(C)C2 | -7.23%
